# Reference: article PMC12040169 (PLOS Biology, 2025)
# The other results are listed elsewhere or left out.
# Tested on: T1, C. trachomatis L2/434/Bu expressing GFP (CTL2-GFP)
# T1 construct: L2/434/Bu GFP intracellular growth in HeLa cells
# Parameters: species or system HeLa; C. trachomatis total inclusion area by high-content imaging, normalised to DMSO
# Conditions: total inclusion area; 28.5 h, 10 µM; inhibitor
# How it was run: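 Bulk GFP and resorufin signals were read first. Wells were then fixed, stained with Hoechst and imaged to detect GFP inclusions and host nuclei. MICs followed the previously described calculation.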
row,SMILES,% of control remaining
1,Cn1c(=O)c2cnc(-c3ccccc3Cl)nc2n(C)c1=O [CBK291219],92.1641
2,O=C(Cn1c(=O)n(Cc2cccnc2)c(=O)c2ncccc21)NC1CCCC1 [CBK287666],89.1123
3,Cc1csc(Sc2nccnc2N2CCCC2)n1 [CBK093735],95.5842
4,CN(C(=O)C1CCC1)c1nc2c(s1)CCc1c-2cnn1C [CBK281931],70.1973
5,CSCCN1CCC(Oc2nccnc2OCCN2C(=O)CCC2=O)CC1 [CBK084351],87.8098
6,Cc1ccc(/C=N/NC(=O)C(C)Oc2ccccc2Br)o1 (stereo not shown) [CBK262226],73.6314
7,O=c1nc(O)c(I)cn1C1OC(CO)C(O)C1O (stereo not shown) [CBK015625],69.7988
8,CC(=O)N1CCc2cc(C(=O)N[C@@H](Cc3ccccc3)C(=O)O)ccc21 [CBK298303],97.1217
9,COc1cccc(CNn2cnnc2S)c1OCc1ccccc1 [CBK265781],112.947
10,Cc1ccccc1-c1csc2c(=O)[nH]c(N3CCC4(CC3)OCCO4)nc12 [CBK291141],91.3384
11,CC(=O)Nc1cccc(CN2CCCC2CN2CCCC2CO)c1 (stereo not shown) [CBK305163],105.93
12,O=C(Cc1ccc(Cl)cc1)NC(=S)Nc1ccccc1O [CBK263905],117.845
13,CN(C)C(=O)CN1CCCC2(CCN(C(=O)c3cc(F)c(F)cc3F)C2)C1 (stereo not shown) [CBK132024],111.422
14,Cc1nc2ccc(C(=O)N3CCC(O)(c4ccccc4C)CC3)cc2[nH]1 [CBK283300],84.5449
15,Cc1cc(C(=O)Nc2cc(F)c(N3CCCC3)c(F)c2)c(C)n1C1CC1 [CBK306226],33.9267
16,CN(Cc1cccc(Oc2ccccc2)c1)Cc1cccc2ccccc12 [CBK261857],92.8537
17,C/C(CCc1ccccc1)=N\NC(=O)c1ccc(CN2CCOCC2)cc1 [CBK262752],94.9208
18,O=C(N/N=C/c1ccc(O)cc1)c1cc[n+](Cc2ccccc2)cc1 [CBK262047C],102.125
19,Cc1ccc(C)c(S(=O)(=O)Nc2ccc(O)c(Sc3nc[nH]n3)c2)c1 [CBK266894],113.074
20,Cc1[nH]c(=O)[nH]c(=O)c1CCC(=O)OCc1nccn1Cc1ccccc1 [CBK297939],97.072

row,SMILES,% of control remaining
1,O=C(NC(c1ccccc1)c1ccsc1)C1CCN(C/C=C/c2ccccc2)CC1 (stereo not shown) [CBK148449],94.1456
2,O=C(CCCN1CCN(CCCC(=O)c2ccc(F)cc2)CC1)c1ccc(F)cc1 [CBK025317C],99.6791
3,CC(C)(C)SCCOC(=O)C1CC(=O)N(Cc2ccccn2)C1 (stereo not shown) [CBK303991],57.5035
4,c1ccc(CCN2CCC(Oc3nccnc3OCc3cccnc3)CC2)nc1 [CBK083180],91.747
5,COC(=O)c1ccccc1NC(=O)CN(c1cccc(Cl)c1Cl)S(C)(=O)=O [CBK264612],94.1834
6,Cc1ccc(-c2noc(-c3cccnc3N3CCC(C(=O)O)CC3)n2)cc1 [CBK287260],127.092
7,CC(=O)Nc1cccc(-c2nccnc2NCC2CC2)c1 [CBK037962],116.381
8,COc1ccc(CN(C)c2c(C)nc3c(OCCCN(C)S(C)(=O)=O)cccn23)cc1 [CBK147468],97.8063
9,C=Cn1ncc(CN(Cc2ccc(C)o2)CC2CCCO2)c1C (stereo not shown) [CBK283292],98.4459
10,Cc1ccc2nsnc2c1NC(=O)CN1CCCCC1 [CBK269330],94.1091
11,N#C/C(=C\c1cn(-c2ccccc2)nc1-c1cccc(S(=O)(=O)N2CCCCCC2)c1)c1nc2ccccc2c(=O)[nH]1 [CBK266347],75.4816
12,COC(=O)N1CCN(C(=O)c2cc(C(C)C)n3ncnc3n2)CC1 [CBK306509],57.5875
13,CN(C)Cc1cn([C@H]2CO[C@H]3[C@@H]2OC[C@@H]3NC(=O)NC2CCCCC2)nn1 [CBK289493],106.181
14,CCc1nnc(SCC(=O)N2c3ccccc3Sc3ccccc32)[nH]1 [CBK268687],107.794
15,Cc1cnn(C2CCCN(C(=O)CC3OCCc4sccc43)C2)c1 (stereo not shown) [CBK305329],102.965
16,Cc1ccc(CN(CCCn2ccnc2)Cc2ccccc2O)s1 [CBK283135],91.6275
17,CN1CCN(c2ccc(NS(=O)(=O)c3ccc(Cl)cc3)cc2)CC1 [CBK076932],102.521
18,c1csc(-c2cn3ccnc3c(NC3CC3)n2)c1 [CBK066712],112.478
19,Cc1cc(NC(=O)C2CCCCC2)nc2c1c(=O)oc1ccccc12 [CBK291247],116.46
20,O=C(NC(CN1CCOCC1)c1ccccc1)c1cnc(-c2ccc(Cl)cc2)c(-c2ccncc2)c1 (stereo not shown) [CBK037604],142.555
